Columns and labels:
[1] = system: MDA-MB-453 cells; experiment: Internalization of antibody-drug conjugates with pHrodo in MDA-MB-453 cells; format: cell-based; conditions: 10 nM
Procedure: The up-taken of the antibody-drug conjugate of the present application against the HER3 target on MDA-MB-453 cells expressing HER3 was detected. The cell, the antibody-drug conjugate (ADC) with a fixed concentration, and an internalization indicating reagent pHrodo were co-incubated, and the endocytosis capacity of the antibody-drug conjugate was evaluated by observing the number of fluorescent signal bright dots generated by pHrodo which entered the cell along with the antibody-drug conjugate in the cell at different time points.
• 1. Cell culture: MDA-MB-453 cells were cultured using a 10% FBS Leibovitz's L-15 medium. • 2. Cell preparation: MDA-MB-453 cells in logarithmic phase were taken, washed with PBS once, and digested with 2-3 mL of Versene for 2-3 min. After the cells were digested completely, 10-15 mL of cell culture was added to elute the digested cells. The eluate was centrifuged at 1000 rpm for 5 min, and the supernatant was discarded. The resulting cells were resuspended in cell culture to give a single cell suspension, which was adjusted to a viable cell density of […] cells/mL. • 3. Cell plating: the cell suspension was added to a 96-well cell culture plate at 50 μL/well. The culture plate was incubated in an incubator for 18 h (37° C., 5% CO2). • 4. Sample adding: the test antibody-drug conjugate was co-incubated with Fab-pHrodo to form a complex, adjusted to a concentration of 10 nM, and added to the cells at 50 μL/well. • 5. Culturing of cells: the culture plate was incubated in an incubator for 2, 4, 6, 24, or 48 h (37° C., 5% CO2). • 6. Plate reading: when the corresponding time point was reached, the 96-well cell culture plate was taken out, Hoechst33342 was added to perform cell nucleus staining, the plate was placed in operatta CLS for photographing, and the number of cells and the number of fluorescent bright dots in each cell were read. The average number of cell fluorescent dots was calculated using Harmony® imaging and analysis software.

[2] = system: HCC1569 breast cancer cells subcutaneous xenograft; experiment: Efficacy in HCC1569 tumor-bearing mice; format: in vivo, mouse; conditions: 1 mg/kg tail vein 1 time per week; end of experiment, 21 days
Procedure: To evaluate anti-tumor effect of the antibody-drug conjugates of the present application in a female NOD/SCID mouse model with subcutaneous xenograft of HCC1569 breast cancer cells. • Blank control (negative control group): […] The growth of the tumors was monitored. […] The day of administration for each group was defined as day 0. The administration was performed by tail vein injection 1 time per week, and the experiment ended 21 days after the administration. The tumor volume and weight were measured twice a week, and the data were recorded. At the end of the experiment, mice were euthanized and tumor growth inhibition TGI % was calculated as follows: (TGI=(1−(Ti−T0)/(Vi−V0))). Ti: mean tumor volumes of the treatment groups and the positive control group on day i of administration; TO: mean tumor volumes of the treatment groups and the positive control group on day 0 of administration; Vi: mean tumor volume of the negative control group on day i of administration; V0: mean tumor volume of the negative control group on day 0 of administration. Data were analyzed using Excel 2016 statistical software, wherein the mean value was calculated as avg; the SD value was calculated as STDEV; and the P value of the difference between groups was calculated as TTEST.

B1: ADC-1-X2: anti-Her3 antibody hu3F8-2 conjugated with linker-payload X2, DAR 7.53 (conjugate)
heavy: QVQLQESGPGLVKPSETLSLTCTVSGYSITSAYYWNWIRQPFGKGLEWMGYISYDGRNNFNPSLKNRVTISRDTSKNQFSLKLSSVTAADTAVYYCARDGDYDYFDYWGQGTTVTVSS[human IgG1 constant region left out]
light: DIQMTQSPSSLSASVGDRVTITCRASQDISNYLNWYQQKPGKAPKLLIYYTSILHSGVPSRFSGSGSGTDYTFTISSLQPEDIATYFCQQGDTLPPTFGGGTKLEIKRTVAAPSVFIFPPSDEQLKSGTASVVCLLNNFYPREAKVQWKVDNALQSGNSQESVTEQDSKDSTYSLSSTLTLSKADYEKHKVYACEVTHQGLSSPVTKSFNRGEC
[1]; assay time 2 h
  Average number of fluorescence dots in cells: 2.1
[1]; assay time 4 h
  Average number of fluorescence dots in cells: 2.3
[1]; assay time 6 h
  Average number of fluorescence dots in cells: 2.5
[1]; assay time 24 h
  Average number of fluorescence dots in cells: 3.4
[1]; assay time 48 h
  Average number of fluorescence dots in cells: 3.7
[2]
  Mean tumor volume: 25.84 ± 14.38 mm^3
  Tumor growth inhibition %: 97.60%

— patent US20250295802A1, “HER3 ANTIBODY-DRUG CONJUGATE AND USE THEREOF” (DUALITY BIOLOGICS (SUZHOU) CO., LTD., priority 2022, published 2025)
